From PubChem BioAssay AID504706 (National Center for Advancing Translational Sciences (NCATS), 2011)
Out of some 320,000 compounds screened, about 200 (0.062%) were called active. Inconclusive means that the source gave no clear call. Such entries were picked first, then a sample of the others. The call rests on the fitted dose curve; in most records, active means well fitted activation curve with a large enough effect; inconclusive means small, poorly fitted or top-dose-only effect; inactive means no such curve, though single readings can be large or run the other way. No potency is given beside an inconclusive call; the fits are too rough.

Test: qHTS assay for re-activators of p53 using a Luc reporter; further: nearly all actives have a fitted effect of over 45% in size
Settings: H1299 p53-A138V BP100-luciferase reporter, luminescence, 24 h; series mostly up to 92.2 µM
How it was run: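 H1299 (p53-null), stable ts p53-A138V + BP100-Luc; 1000 cells/well, Opti-MEM/10% FBS; cpd 4 pt, 1:5; 24 h, 37 deg C, 5% CO2; detection reagent 10 min RT; luminescence.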
Potency means the concentration at half of the fitted maximal effect; tags describe the fitted curve by direction and shape.

Compound | Potency
COc1nnc(-c2ccc(C)c(S(=O)(=O)NC(C)(C)CO)c2)c2ccccc12 | inactive
Oc1c(C=Nc2ccccc2Cl)[nH]c2ccccc12 | inconclusive [activator, full curve, poor fit]
O=C(N/N=C/c1ccc(O)cc1O)/C(=C/c1ccccc1)CCO | inconclusive [activator, partial curve, poor fit]
CC1(C)C(=O)OC(c2cc(Br)ccc2O)C(C)(C)C1=O (stereo not given) | inconclusive [activator, single point]
CC(=O)c1sc2nsc(SCCN3CCCCC3)c2c1N | inactive
CCn1c(SCC(=O)N2CCc3ccccc32)nnc1-c1ccncc1 | inactive
Cc1cc(C)n2nc(-c3ccc(F)cc3)nc2n1 | inconclusive [activator, partial curve, poor fit]
Cc1cc(C(=O)COC(=O)c2ccc(Cl)c(S(N)(=O)=O)c2)c(C)n1C1CC1 | inconclusive [activator, full curve, poor fit]
Cc1ccc(-c2nnc(-c3cccnc3)o2)cc1 | inconclusive [activator, full curve, poor fit]
Cc1nc(NCc2ccco2)nc2c1C(=O)CC(C)C2 (stereo not given) | inactive
O=C(N/N=C/c1sc(N2CCOCC2)nc1-c1ccccc1)c1ccccc1Cl | inactive
CCCC(=O)N=C1SC2CS(=O)(=O)CC2N1c1ccc(-c2nc3ccc(C)cc3s2)cc1 (stereo not given) | inconclusive [activator, partial curve, poor fit]
Cc1nonc1C(=O)N/N=C/c1ccc(O)cc1 | inconclusive [activator, full curve]
Cc1cc(N/N=C\c2ccccc2)nc(-c2ccccc2O)n1 | inconclusive [activator, full curve, poor fit]
O=C1CC(N2CCN(C/C=C/c3ccccc3)CC2)C(=O)N1CCc1ccccc1 (stereo not given) | inactive
O=C(CN1C(=O)S/C(=C/c2ccncc2)C1=O)N1CCOCC1 | inconclusive [activator, single point]
N#CC(=C=[N-])c1nc2ccccc2nc1-[n+]1cccc(NC(=O)c2ccccc2)c1 | inactive
Cc1c(Br)c([N+](=O)[O-])nn1CC(=O)Nc1ccc(CC#N)cc1 | inactive
CCn1c(=O)n(CC)c2cc(S(=O)(=O)N3CCC(c4ccccc4)CC3)ccc21 | inactive
N#C/C(=C\c1ccc(F)c(Br)c1)C(=O)NC1CC1 | inconclusive [activator, partial curve, poor fit]
